The assay deals with Plasmodium falciparum NF54/iGP1_RE9H ulg8 stage V gametocytes. The experiment in a line: gametocyte viability (luciferase signal relative to DMSO control) (% of DMSO control); higher = less gametocytocidal activity, active = 50 or less. The following applies: exposure time: 72 h. Put shortly:
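Compounds from 10 mM DMSO stocks were spotted at nanolitre scale into 96-well plates, and day-12 stage V NF54/iGP1_RE9Hulg8 gametocytes (~2.5% gametocytemia, 3% hematocrit; medium with 0.5% Albumax II) were added to reach 10 µM or 1 µM, one well per concentration. The plates were kept at 37 °C for 72 h. Luminescence was then read on an IVIS Lumina II after mixing 90 µl of culture with 10 µl D-luciferin (30 mg/ml). Viability values are relative to the plate's mean DMSO vehicle signal.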

Structures can show the parent of a compound that is named as a salt. Among all 1,300 compounds or so, about 40 (3%) showed activity. Some of the results follow.

Take `NC(CO)C(=O)NNCc1ccc(O)c(O)c1O` (centres undefined) [Benserazide hydrochloride]: the gametocyte viability runs as follows: (concentration: 1 µM) inactive: 89.1; (concentration: 10 µM) inactive: 88.2.
Regarding `CN1CCC(OC(c2ccccc2)c2ccccc2)CC1` [Diphenylpyraline hydrochloride], the gametocyte viability (concentration: 1 µM) was inactive: 88.9 and the gametocyte viability (concentration: 10 µM) was inactive: 100.
For the molecule `O=C(Oc1cccc2cccnc12)c1ccccc1` [Benzoxiquine], the gametocyte viability reads like this: (concentration: 1 µM) inactive: 83.5; (concentration: 10 µM) inactive: 83.4.
Taken in the same sequence, the figures for `Clc1ccc(Nc2nnc(Cc3ccncc3)c3ccccc23)cc1` [Vatalanib] were inactive: 89.2 and inactive: 69.1.
For the molecule `CC(C)CN(C[C@@H](O)[C@H](Cc1ccccc1)NC(=O)O[C@H]1CO[C@H]2OCC[C@H]21)S(=O)(=O)c1ccc(N)cc1` [Darunavir], the gametocyte viability (concentration: 1 µM) was inactive: 82.6 and the gametocyte viability (concentration: 10 µM) was inactive: 81.5.
As for `O=C1c2cccc3c2[C@H](CCC3)CN1[C@@H]1CN2CCC1CC2` [Palonosetron hydrochloride], the gametocyte viability is inactive: 85.5 (concentration: 1 µM) and inactive: 81.6 (concentration: 10 µM).
On to `NCC[C@H](O)C(=O)N[C@@H]1C[C@H](N)[C@@H](O[C@H]2O[C@H](CN)[C@@H](O)[C@H](O)[C@H]2O)[C@H](O)[C@H]1O[C@H]1O[C@H](CO)[C@@H](O)[C@H](N)[C@H]1O` [Amikacin hydrate], for which the gametocyte viability was inactive: 86.2 (concentration: 1 µM) and inactive: 85.6 (concentration: 10 µM).
Take `CC(C)C(=O)Nc1ccc([N+](=O)[O-])c(C(F)(F)F)c1` [Flutamide]: the gametocyte viability (concentration: 1 µM) was inactive: 83.9 and the gametocyte viability (concentration: 10 µM) is inactive: 81.9.
In the same order, the values of `Cn1cnc([N+](=O)[O-])c1Sc1ncnc2[nH]cnc12` [Azathioprine] are inactive: 89.3 and inactive: 90.5.
For the molecule `CN(C)[C@@H]1C(=O)C(C(N)=O)=C(O)[C@@]2(O)C(=O)C3=C(O)c4c(O)ccc(Cl)c4[C@@H](O)[C@H]3C[C@@H]12` [Demeclocycline hydrochloride], the gametocyte viability was inactive: 95.2 (concentration: 1 µM) and inactive: 90.1 (concentration: 10 µM).
As for `OCCN1C[C@H](O)[C@@H](O)[C@H](O)[C@H]1CO` [Miglitol], the gametocyte viability (concentration: 1 µM) was inactive: 78.3 and the gametocyte viability (concentration: 10 µM) is inactive: 81.3.
For the molecule `CC(=O)SCC(Cc1ccccc1)C(=O)NCC(=O)OCc1ccccc1` (centres undefined) [Racecadotril], the gametocyte viability reads like this: (concentration: 1 µM) inactive: 95.8; (concentration: 10 µM) inactive: 93.3.
Take `C[C@H](CCC(=O)O)[C@H]1CC[C@H]2[C@@H]3CC[C@@H]4C[C@H](O)CC[C@]4(C)[C@H]3CC[C@]12C` [Lithocholic acid]: the gametocyte viability runs as follows: (concentration: 1 µM) inactive: 96.2; (concentration: 10 µM) inactive: 98.8.
Regarding `COC(=O)C1=C(C)NC(C)=C(C(=O)OC(C)C)C1c1cccc2nonc12` (centres undefined) [Isradipine], the gametocyte viability is, setting by setting: (concentration: 1 µM) inactive: 84.4; (concentration: 10 µM) inactive: 86.2.
Take `COCC(=O)Nc1c(I)c(C(=O)NCC(O)CO)c(I)c(C(=O)N(C)CC(O)CO)c1I` (centres undefined) [Iopromide]: the gametocyte viability by setting is: (concentration: 1 µM) inactive: 85.6; (concentration: 10 µM) inactive: 85.9.
As to `O=C(O)CCCC[C@@H]1SC[C@@H]2NC(=O)N[C@@H]21` [Biotin], the gametocyte viability (concentration: 1 µM) was inactive: 77.5 and the gametocyte viability (concentration: 10 µM) was inactive: 86.4.
Consider `CC1COc2c(N3CCN(C)CC3)c(F)cc3c(=O)c(C(=O)O)cn1c23` (centres undefined) [Ofloxacin], for which the gametocyte viability (concentration: 1 µM) was inactive: 85.5 and the gametocyte viability (concentration: 10 µM) was inactive: 85.7.
In the same order, the values of `CCN1CC(CCN2CCOCC2)C(c2ccccc2)(c2ccccc2)C1=O` (centres undefined) [Doxapram hydrochloride] are inactive: 79.8 and inactive: 82.
In the case of `OCc1cc(C(O)CNCCCCCCOCCCCc2ccccc2)ccc1O` (centres undefined) [Salmeterol], the gametocyte viability runs as follows: (concentration: 1 µM) inactive: 93.8; (concentration: 10 µM) inactive: 79.7.
In the same order, the values of `CC(=O)OCC(=O)[C@@]12N=C(C)O[C@@H]1C[C@H]1[C@@H]3CCC4=CC(=O)C=C[C@]4(C)[C@H]3[C@@H](O)C[C@@]12C` [Deflazacort] are inactive: 95.7 and inactive: 104.
On to `O=C(O)Cc1sc(-c2ccccc2)nc1-c1ccc(Cl)cc1` [Fentiazac], for which the gametocyte viability runs as follows: (concentration: 1 µM) inactive: 93.4; (concentration: 10 µM) inactive: 90.3.
Turning to `CC(=O)Nc1ccc(CC(=O)O)cc1` [Actarit], the gametocyte viability is, setting by setting: (concentration: 1 µM) inactive: 91.6; (concentration: 10 µM) inactive: 94.8.
In the same order, the values of `C=C1c2c(Cl)ccc(O)c2C(O)=C2C(=O)[C@]3(O)C(O)=C(C(N)=O)C(=O)[C@@H](N(C)C)[C@@H]3[C@@H](O)[C@H]12.O=C(O)c1cc(S(=O)(=O)O)ccc1O` [Meclocycline sulfosalicylate] are inactive: 80.9 and inactive: 83.5.
For `CNCCC(Oc1ccc(C(F)(F)F)cc1)c1ccccc1` (centres undefined) [Fluoxetine hydrochloride], the gametocyte viability is inactive: 83 (concentration: 1 µM) and inactive: 87 (concentration: 10 µM).
With `Cc1nc2n(c(=O)c1CCN1CCC(c3noc4cc(F)ccc34)CC1)CCCC2` [Risperidone], the gametocyte viability runs as follows: (concentration: 1 µM) inactive: 97; (concentration: 10 µM) inactive: 96.5.
Consider `CCn1cc(C(=O)O)c(=O)c2cnc(N3CCCC3)nc21` [Piromidic acid], for which the gametocyte viability by setting is: (concentration: 1 µM) inactive: 86.5; (concentration: 10 µM) inactive: 85.3.
On to `O=S(=O)(O)CCS` [Mesna], for which the gametocyte viability (concentration: 1 µM) was inactive: 85.6 and the gametocyte viability (concentration: 10 µM) was inactive: 85.9.
`CC(C)(C)NC[C@H](O)c1ccc(O)c(CO)c1` [Levalbuterol hydrochloride]: the gametocyte viability reads like this: (concentration: 1 µM) inactive: 80.9; (concentration: 10 µM) inactive: 81.4.
In the same order, the values of `O=C(O)c1cc(-c2ccc(F)cc2F)ccc1O` [Diflunisal] are inactive: 82 and inactive: 81.1.
For the molecule `CCCCNC(=O)NS(=O)(=O)c1ccc(C)cc1` [Tolbutamide], the gametocyte viability is, setting by setting: (concentration: 1 µM) inactive: 84.9; (concentration: 10 µM) inactive: 88.4.
As for `CC(=O)[C@H]1CC[C@H]2[C@@H]3C[C@H](C)C4=CC(=O)CC[C@]4(C)[C@H]3[C@@H](O)C[C@]12C` [Medrysone], the gametocyte viability is, setting by setting: (concentration: 1 µM) inactive: 80.1; (concentration: 10 µM) inactive: 75.8.
In the same order, the values of `CCOC(=O)OC(C)OC1=C(C(=O)Nc2ccccn2)N(C)S(=O)(=O)c2ccccc21` (centres undefined) [Ampiroxicam] are inactive: 81.1 and inactive: 83.1.
For `CC1(C)NC(=O)N(c2ccc([N+](=O)[O-])c(C(F)(F)F)c2)C1=O` [Nilutamide], the gametocyte viability runs as follows: (concentration: 1 µM) inactive: 95.8; (concentration: 10 µM) inactive: 92.3.
In the same order, the values of `COC(=O)[C@@H]1[C@H]2C[C@H]3c4[nH]c5ccccc5c4CCN3C[C@@H]2CC[C@@H]1O` [Yohimbine hydrochloride] are inactive: 97.2 and inactive: 94.4.
In the same order, the values of `CCCCC(CC)CNC(=N)NC(=N)NCCCCCCNC(=N)NC(=N)NCC(CC)CCCC` (centres undefined) [Alexidine dihydrochloride] are active: 36.2 and active: 0.515.
For `COc1ccc2cc([C@@H](C)C(=O)O)ccc2c1` [(R) -Naproxen sodium salt], the gametocyte viability (concentration: 1 µM) is inactive: 87.1 and the gametocyte viability (concentration: 10 µM) was inactive: 81.3.
`Nc1nc(=O)c2c([nH]1)NC[C@@H](CNc1ccc(C(=O)N[C@@H](CCC(=O)O)C(=O)O)cc1)N2C=O` [Folinic acid calcium salt]: the gametocyte viability (concentration: 1 µM) is inactive: 94.7 and the gametocyte viability (concentration: 10 µM) was inactive: 91.7.
As for `CCCCOc1cc(C(=O)NCCN(CC)CC)c2ccccc2n1` [Dibucaine], the gametocyte viability runs as follows: (concentration: 1 µM) inactive: 83.9; (concentration: 10 µM) inactive: 80.8.
As for `O=C1CCc2cc(OCCCCc3nnnn3C3CCCCC3)ccc2N1` [Cilostazol], the gametocyte viability (concentration: 1 µM) was inactive: 90.8 and the gametocyte viability (concentration: 10 µM) was inactive: 95.7.
Taken in the same sequence, the figures for `CCS(=O)(=O)CCn1c([N+](=O)[O-])cnc1C` [Tinidazole] were inactive: 97.9 and inactive: 95.4.
As for `CCC1=C(C)CN(C(=O)NCCc2ccc(S(=O)(=O)NC(=O)N[C@H]3CC[C@H](C)CC3)cc2)C1=O` [Glimepiride], the gametocyte viability is inactive: 97.7 (concentration: 1 µM) and inactive: 101 (concentration: 10 µM).
For `CC(=O)N(CC(C)C(=O)O)c1c(I)cc(I)c(N)c1I` (centres undefined) [Iocetamic acid], the gametocyte viability runs as follows: (concentration: 1 µM) inactive: 81.2; (concentration: 10 µM) inactive: 85.1.
In the same order, the values of `COc1cc(C(=O)NC2CCCNC2)cc(OC)c1OC` (centres undefined) [Troxipide] are inactive: 96.8 and inactive: 94.3.
Taken in the same sequence, the figures for `C[C@]12CC[C@@H]3c4ccc(O)cc4CC[C@H]3[C@@H]1CCC2=O` [Estrone] were inactive: 99.2 and inactive: 96.4.
Turning to `CCOC(=O)C1=C[C@]2(CC)CCCN3CCc4c(n1c1ccccc41)[C@@H]32` [Vinpocetine], the gametocyte viability is inactive: 86.2 (concentration: 1 µM) and inactive: 87.6 (concentration: 10 µM).
Take `Cc1cccc(CN2CCN(C(c3ccccc3)c3ccc(Cl)cc3)CC2)c1` (centres undefined) [Meclozine dihydrochloride]: the gametocyte viability (concentration: 1 µM) was inactive: 86.3 and the gametocyte viability (concentration: 10 µM) is inactive: 81.3.
In the same order, the values of `O=C(O)CCC(=O)Nc1ccc(S(=O)(=O)Nc2nccs2)cc1` [Succinylsulfathiazole] are inactive: 95.6 and inactive: 96.7.
For `COc1cnc(NS(=O)(=O)c2ccc(N)cc2)nc1` [Sulfameter], the gametocyte viability is inactive: 90.3 (concentration: 1 µM) and inactive: 94.4 (concentration: 10 µM).
Taken in the same sequence, the figures for `CCCCC(C)(O)C/C=C/[C@H]1[C@H](O)CC(=O)[C@@H]1CCCCCCC(=O)OC` (mixture of isomers) [Misoprostol] were inactive: 82.4 and inactive: 81.9.
Consider `CNCCC(Oc1ccccc1OC)c1ccccc1` (centres undefined) [Nisoxetine hydrochloride], for which the gametocyte viability is inactive: 89.1 (concentration: 1 µM) and inactive: 95.5 (concentration: 10 µM).
Take `COc1ccccc1O` [Guaiacol]: the gametocyte viability runs as follows: (concentration: 1 µM) inactive: 80.8; (concentration: 10 µM) inactive: 86.9.
For `CCCCCCCN(CC)CCCC(O)c1ccc(NS(C)(=O)=O)cc1` (centres undefined) [Ibutilide fumarate], the gametocyte viability reads like this: (concentration: 1 µM) inactive: 93; (concentration: 10 µM) inactive: 92.8.
Consider `COc1ccc(-c2cc(=O)c3c(O)cc(O[C@@H]4O[C@H](CO[C@@H]5O[C@@H](C)[C@H](O)[C@@H](O)[C@H]5O)[C@@H](O)[C@H](O)[C@H]4O)cc3o2)cc1O` [Diosmin], for which the gametocyte viability (concentration: 1 µM) is inactive: 88.9 and the gametocyte viability (concentration: 10 µM) was inactive: 86.4.
In the case of `CC1CS(=O)(=O)CCN1/N=C/c1ccc([N+](=O)[O-])o1` (centres undefined) [Nifurtimox], the gametocyte viability reads like this: (concentration: 1 µM) inactive: 81.3; (concentration: 10 µM) inactive: 63.1.
For `CN1CC2c3ccccc3Oc3ccc(Cl)cc3C2C1` (centres undefined) [Asenapine maleate], the gametocyte viability is inactive: 94.7 (concentration: 1 µM) and inactive: 101 (concentration: 10 µM).
Regarding `c1ccc2[nH]c(-c3cscn3)nc2c1` [Tiabendazole], the gametocyte viability was inactive: 95.2 (concentration: 1 µM) and inactive: 92.9 (concentration: 10 µM).
Taken in the same sequence, the figures for `CO/N=C(\C(=O)N[C@@H]1C(=O)N2C(C(=O)O)=C(C[N+]3(C)CCCC3)CS[C@H]12)c1csc(N)n1` [Cefepime hydrochloride] were inactive: 78.9 and inactive: 82.2.

Source of the values: the supplement of paper PMC12297408.
